Over roughly 33,000 sequences, “E-score (-0.5 to 0.5)” has its median near -0.016; the highest 2% begin near 0.31. Some of the results follow.
What follows are sequences tested against Cst6 (UniProt P40535) (assay: PBM E-score (8-mer binding enrichment) (E-score (-0.5 to 0.5)); higher = stronger / more preferred TF binding; most listed sequences are background and not binding sites). Conditions: protein concentration: 200 nM; construct: GST-DNA-binding domain.
Procedure, shortened: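 Yeast transcription factors carrying a GST tag, as full-length proteins or DNA-binding domains, were produced by PURExpress in vitro transcription/translation. About 100-200 nM protein was applied to universal all-10-mer Agilent arrays, double-stranded by primer extension on fresh or once-stripped slides. Bound protein was detected with fluorescent anti-GST, and scans were normalised with masliner. The Universal PBM Analysis Suite gave each ungapped eight-base word, pooled with its reverse complement, an E-score, a modified Wilcoxon-Mann-Whitney statistic.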

Row | Sequence | PBM E-score
1 | AATCTATA | 0.272
2 | AGGTTCCA | -0.124
3 | AATGCGGT | -0.0337
4 | CCTCCAGA | -0.111
5 | AGGCAGAT | -0.0309
6 | ACTCGGGG | -0.151
7 | GGACTGTA | -0.0875
8 | CGGCAAAC | 0.0595
9 | ACATCGCT | -0.0354
10 | GCTCAGGA | -0.112
11 | AAAGTGTT | 0.0406
12 | ACGAAGTA | -0.182
13 | CGTTTTAG | -0.0359
14 | GGACCACA | -0.223
15 | TGAACGAA | 0.0906
16 | CAAGTGAA | 0.0625
17 | ATACACCC | -0.0469
18 | ACTCCGCC | -0.282
19 | ACTCACCC | -0.0424
20 | TAGAACGA | 0.134
21 | AATATGTA | 0.211
22 | AGGTTCGC | -0.315
23 | ACGACAGG | -0.00513
24 | AAGAGAAG | 0.026
25 | AGCGTTGC | 0.13

Row | Sequence | PBM E-score
26 | TAATCGCA | 0.24
27 | AGTCAGAG | -0.0315
28 | CAACGGCG | 0.132
29 | AGTGTTGC | 0.166
30 | GGAGTCCA | -0.161
31 | TAATTAAA | 0.207
32 | ATCATTGG | 0.194
33 | CATCCCTC | -0.0435
34 | TAAATGCA | 0.114
35 | CTCCCGGC | -0.223
36 | AAACGTCT | 0.14
37 | CGTTGTCA | 0.0333
38 | AAGTGGAT | -0.0702
39 | AGGTCAGA | -0.15
40 | ATGCTCGG | -0.0549
41 | TTAGTCAA | 0.0689
42 | GATCTGTA | 0.016
43 | GTATCTGA | -0.0542
44 | AGGTCATG | 0.221
45 | CCGTGACA | 0.15
46 | AGGCTTTG | -0.136
47 | CGGGTGGC | -0.183
48 | CCTCTAGA | -0.179
49 | ATACTTGC | 0.0726
50 | GCGAGTAC | -0.0836

Row | Sequence | PBM E-score
51 | AGTCAGCA | 0.195
52 | ACAGGGGA | -0.218
53 | CCTTGTCC | -0.129
54 | TACGTGGA | 0.157
55 | CGTTGAAG | 0.0825
56 | CTCTGCTC | -0.211
57 | AGCTTAAT | 0.112
58 | GACTGGGC | -0.31
59 | GAATACTC | -0.0306
60 | ACGTGGGG | -0.121
61 | ATACGAGA | -0.041
62 | CGATCTGC | -0.0699
63 | GCGAGGTA | -0.0924
64 | GTCGATGA | 0.121
65 | CCGAGGCC | -0.243
66 | CAACTGTC | -0.0406
67 | ATACTTCC | -0.115
68 | AGTTGGAC | -0.0527
69 | CTCCTTGA | -0.0988
70 | ACCAAGCT | 0.0602
71 | CATGTTGG | -0.0314
72 | GGCAATCA | 0.0147
73 | CACCAGGG | -0.226
74 | ACGAGTAT | 0.103
75 | AGTCCCAG | -0.25

Row | Sequence | PBM E-score
76 | AAAAAATT | 0.237
77 | CCGTTAAC | -0.0117
78 | GGGCCGCA | -0.0641
79 | ATACCCTG | -0.0744
80 | AGAATAAG | 0.0844
81 | CCTGTAGA | 0.0625
82 | GCCATCTA | -0.0441
83 | AGATCAAA | 0.105
84 | CTAAGCCA | -0.271
85 | CTGAGTAA | -0.0175
86 | ATAATAAC | 0.205
87 | ACTCCACG | -0.114
88 | AAATGAAG | 0.173
89 | AACGCGCA | 0.11
90 | ACTGCTGA | -0.0776
91 | ACAAACCA | 0.0273
92 | ATGTGTAC | 0.0111
93 | AGCACTAC | -0.0567
94 | ATGAGCTG | 0.0155
95 | ACCCTGCG | -0.00158
96 | AAGTGCCT | -0.149
97 | CAACCGGC | -0.139
98 | ATTAGCTA | 0.0716
99 | ATTCGCCC | -0.268
100 | ATAGCGCC | 0.141

Row | Sequence | PBM E-score
101 | CAAGCAGA | 0.00785
102 | AACCTAAC | 0.133
103 | AAGGTGGG | -0.302
104 | TGCCCAAA | -0.285
105 | CCAGATAA | 0.0644
106 | GGCATTTA | 0.0519
107 | CCTGGTGC | -0.0554
108 | GCGGAGGA | -0.355
109 | AAACGGAA | 0.183
110 | ACGCGTGG | -0.0007
111 | CCAGACGC | -0.205
112 | CAACTAAC | 0.179
113 | CCTATGGA | -0.106
114 | GAGTTCGA | 0.106
115 | AATCGGGG | -0.261
116 | AGAAGAAA | 0.18
117 | AATATAGC | 0.106
118 | CGCGGGGC | -0.0534
119 | GCTAGCAA | -0.143
120 | CAGCCGCC | -0.0993
121 | ACTAGAGC | -0.174
122 | ACATAGGA | -0.0648
123 | GCTCTCGA | -0.123
124 | GAGGTCCC | -0.22
125 | AATTATCG | 0.316

Row | Sequence | PBM E-score
126 | TGCGCACA | -0.0758
127 | TACTAGTA | 0.262
128 | ATATTACC | 0.248
129 | GCCCCTTA | -0.246
130 | ACTCTTCG | -0.156
131 | GCCCTAAA | -0.202
132 | ACCAAACG | -0.00397
133 | GAGTTTAC | 0.0471
134 | ACTCCAGT | -0.162
135 | CTACTGTC | -0.144
136 | ACTAACAT | 0.231
137 | AGTACGAG | -0.0146
138 | AACGGCGT | 0.265
139 | CGACTTAG | -0.0693
140 | GCTAACTA | 0.106
141 | AATCGAAA | 0.159
142 | CTCATGTA | 0.162
143 | GCAACGAC | 0.0229
144 | AAAGCGGG | -0.165
145 | TATAGAGA | 0.0625
146 | CGCGACTC | -0.121
147 | CGTGACAC | 0.188
148 | AGCAGATG | -0.0323
149 | CCATTTCA | -0.0394
150 | CGATTACG | 0.349

Row | Sequence | PBM E-score
151 | ATATCGAC | 0.167
152 | CGTATTCA | 0.134
153 | ATACCAGC | -0.138
154 | AGGTTGAT | -0.119
155 | ATTTGAAG | -0.107
156 | GACCTACC | -0.212
157 | CCGACTCA | -0.248
158 | CAAGAGTA | 0.0196
159 | GAGACCAC | 0.00825
160 | CGATCGGA | -0.171
161 | AGTTTGTA | 0.0653
162 | ACAACTTC | 0.131
163 | CGGCCTCA | -0.0129
164 | GAATTAGA | 0.167
165 | ACACTTTG | 0.066
166 | GCTGCAAA | 0.166
167 | TTATGAAA | 0.259
168 | AGCTCGTC | -0.101
169 | GACTATCC | -0.213
170 | ATTAGTAG | 0.0988
171 | CTCCCATC | -0.0972
172 | AACAACTT | 0.122
173 | GCCACGGA | -0.087
174 | CAGAGACA | -0.19
175 | ACACCTCT | -0.0751

Row | Sequence | PBM E-score
176 | CCGGGTAC | -0.237
177 | CTCACCCA | -0.104
178 | CCGCAAAA | 0.0318
179 | ATTAGACC | -0.184
180 | GTGGGAAA | -0.0404
181 | CAACGACC | -0.109
182 | AGGACCCC | -0.298
183 | CGGGCCCA | -0.189
184 | CCGATTCA | -0.0604
185 | AACCCGAA | 0.0157
186 | TGCTACCA | -0.127
187 | CTACACTC | -0.213
188 | ACCTCTTG | -0.109
189 | TAGCACGA | -0.0254
190 | AACCCTCT | -0.384
191 | AGCCTAGC | -0.167
192 | AGACCCGA | 0.0255
193 | CCGCGTCA | 0.34
194 | AATCGAAG | 0.161
195 | CAATCCTG | 0.165
196 | CACTCCGG | 0.0286
197 | ATGGCTGA | 0.0564
198 | CGCCGGAC | -0.164
199 | ATTTGCGG | -0.0222
200 | CCGATGCC | -0.0671

Row | Sequence | PBM E-score
201 | TAGCGAGA | -0.0782
202 | GATGGGTA | -0.101
203 | AAAGTGGC | 0.00035
204 | GCTCATAA | 0.039
205 | ATCAGGTC | -0.0391
206 | AATAATCG | 0.179
207 | AGTGTCCC | -0.101
208 | ACGGATAC | 0.115
209 | CTTTGACA | 0.113
210 | CACCAGCC | -0.172
211 | CTTCGCAA | 0.00607
212 | GGGCCATA | -0.121
213 | TATAGCGA | -0.0313
214 | AAACATGA | 0.201
215 | TCTCTTAA | 0.115
216 | ACCGGTAG | -0.305
217 | GGCCTGGA | -0.234
218 | CACAAGTC | -0.0346
219 | CCGTCCCA | -0.0496

— the supplement of paper PMC3334620
